Out of some 360,000 compounds screened, about 16,000 (4.4%) were called active. This list was built around the results that the source calls inconclusive (neither active nor inactive); the mix of calls is not that of the screen. Calls come from the whole dose curve; as a rule, active = well fitted inhibition curve with a large enough effect; inconclusive = small, poorly fitted or top-dose-only effect; inactive = no such curve, though single readings can be large or run the other way. Where the call is inconclusive, the potency comes from a doubtful curve fit.
Target: Bromodomain adjacent to zinc finger domain protein 2B (Homo sapiens) (UniProt Q9UIF8)
Chain of UniProt Q9UIF8 (Q9UIF8 whole entry, looked up, the tested form may be a part): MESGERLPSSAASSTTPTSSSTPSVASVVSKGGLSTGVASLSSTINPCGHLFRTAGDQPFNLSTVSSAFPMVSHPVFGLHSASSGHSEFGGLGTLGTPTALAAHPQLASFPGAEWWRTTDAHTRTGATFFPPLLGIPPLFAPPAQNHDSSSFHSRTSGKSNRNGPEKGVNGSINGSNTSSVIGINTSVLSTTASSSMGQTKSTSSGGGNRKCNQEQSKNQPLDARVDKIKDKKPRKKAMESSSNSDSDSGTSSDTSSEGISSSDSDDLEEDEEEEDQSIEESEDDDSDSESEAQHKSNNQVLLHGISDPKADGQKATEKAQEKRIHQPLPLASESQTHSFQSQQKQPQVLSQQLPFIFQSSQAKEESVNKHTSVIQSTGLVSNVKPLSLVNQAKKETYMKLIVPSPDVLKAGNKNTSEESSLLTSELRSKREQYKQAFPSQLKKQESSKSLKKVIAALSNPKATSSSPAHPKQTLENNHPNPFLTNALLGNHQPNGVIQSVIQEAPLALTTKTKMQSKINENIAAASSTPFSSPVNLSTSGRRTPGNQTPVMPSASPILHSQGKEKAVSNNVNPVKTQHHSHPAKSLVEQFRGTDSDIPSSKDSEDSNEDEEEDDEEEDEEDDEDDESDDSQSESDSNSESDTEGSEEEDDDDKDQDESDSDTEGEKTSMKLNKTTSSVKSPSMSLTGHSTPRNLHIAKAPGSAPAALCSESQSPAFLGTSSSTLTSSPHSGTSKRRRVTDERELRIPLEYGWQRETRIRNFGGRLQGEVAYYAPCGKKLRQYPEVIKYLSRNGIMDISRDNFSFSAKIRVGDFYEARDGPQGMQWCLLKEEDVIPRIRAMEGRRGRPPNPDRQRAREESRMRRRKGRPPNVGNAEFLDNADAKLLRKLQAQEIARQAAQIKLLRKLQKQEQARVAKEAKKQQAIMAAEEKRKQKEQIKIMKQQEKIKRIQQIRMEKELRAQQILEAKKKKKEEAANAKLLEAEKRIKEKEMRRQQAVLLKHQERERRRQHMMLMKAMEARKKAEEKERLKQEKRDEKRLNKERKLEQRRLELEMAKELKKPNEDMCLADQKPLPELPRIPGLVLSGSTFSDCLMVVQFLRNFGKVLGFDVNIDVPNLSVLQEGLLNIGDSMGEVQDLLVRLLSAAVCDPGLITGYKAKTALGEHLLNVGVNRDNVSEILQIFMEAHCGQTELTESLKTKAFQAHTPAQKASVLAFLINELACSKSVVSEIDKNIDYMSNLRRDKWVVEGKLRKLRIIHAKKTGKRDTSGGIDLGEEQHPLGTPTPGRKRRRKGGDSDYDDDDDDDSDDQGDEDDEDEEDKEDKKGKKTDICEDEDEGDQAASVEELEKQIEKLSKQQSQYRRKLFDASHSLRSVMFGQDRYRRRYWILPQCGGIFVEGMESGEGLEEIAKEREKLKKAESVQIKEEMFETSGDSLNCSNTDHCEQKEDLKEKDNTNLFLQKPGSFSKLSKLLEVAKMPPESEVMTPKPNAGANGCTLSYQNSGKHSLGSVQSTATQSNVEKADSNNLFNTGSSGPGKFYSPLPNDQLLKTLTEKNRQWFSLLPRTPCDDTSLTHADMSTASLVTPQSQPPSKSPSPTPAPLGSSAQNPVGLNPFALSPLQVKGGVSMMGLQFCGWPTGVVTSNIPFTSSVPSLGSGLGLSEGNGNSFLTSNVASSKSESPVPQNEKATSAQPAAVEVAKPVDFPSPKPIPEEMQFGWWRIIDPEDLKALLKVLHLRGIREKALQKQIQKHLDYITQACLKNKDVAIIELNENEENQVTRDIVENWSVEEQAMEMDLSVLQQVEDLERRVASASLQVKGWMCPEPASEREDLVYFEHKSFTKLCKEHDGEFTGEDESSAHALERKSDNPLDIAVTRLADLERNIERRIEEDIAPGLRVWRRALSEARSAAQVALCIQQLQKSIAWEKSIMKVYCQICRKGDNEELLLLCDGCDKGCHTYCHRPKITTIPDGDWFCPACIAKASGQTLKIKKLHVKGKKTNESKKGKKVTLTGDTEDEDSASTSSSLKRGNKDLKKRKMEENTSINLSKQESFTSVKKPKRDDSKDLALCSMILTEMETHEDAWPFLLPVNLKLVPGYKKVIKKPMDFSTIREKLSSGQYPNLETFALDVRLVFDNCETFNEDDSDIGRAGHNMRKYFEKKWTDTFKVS
Test: qHTS Assay for Inhibitors of BAZ2B; note: nearly all actives have a fitted effect of over 60% in size
Conditions: AlphaScreen BAZ2B-H3K14Ac peptide displacement; series mostly up to 114 µM
Summary of the method: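 AlphaScreen displacement of biotin-H3(5-23)K14Ac peptide (50 nM final) from BAZ2B (50 nM final) in PBS pH 7.4, 0.01% Tween-20; complex preformed 30 min RT, then compounds (top 110 uM) 30 min RT, beads 20 min dark.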
Potency is the fitted concentration of half-maximal effect; tags give direction and shape of the fitted curve.

| Structure (SMILES) | Potency |
| --- | --- |
| CCOC1(OCC)N=C(N)C2(C#N)C(c3ccc(NC(C)=O)cc3)C12C#N (stereo not given) | active: 79.4 µM |
| Cc1cc(C)n(CCc2nc(-c3cccs3)cs2)n1 | inactive |
| O=C1NC2=C(CCc3ccccc32)C(c2ccccc2)N1 (stereo not given) | inactive |
| CCN1CCN(c2nc3c(S(=O)(=O)c4ccc(C)cc4)nnn3c3ccsc23)CC1 | inconclusive: 89.1 µM [inhibitor, single point] |
| COCCNS(=O)(=O)c1ccc2c(c1)Cc1cc(S(=O)(=O)NCCOC)ccc1-2 | inactive |
| COc1cc(C2/C(=C(\O)c3ccc4c(c3)CC(C)O4)C(=O)C(=O)N2c2nnc(C)s2)cc(OC)c1OC (stereo not given) | inconclusive: 89.1 µM [inhibitor, single point] |
| CCOC(=O)c1c(NC(=O)C2CCCCC2C(=O)O)sc2c1CCCCC2 (stereo not given) | inconclusive: 79.4 µM [inhibitor, single point] |
| COc1ccc(-c2cc(C(F)(F)F)n3ncc(-c4ccccc4)c3n2)cc1 | inconclusive: 8.91 µM [inhibitor, full curve] |
| COc1cc(C2C3=C(CC(C)(C)CC3=O)N(C)C3=C2C(=O)CC(C)(C)C3)cc(Br)c1O | inactive |
| Cc1csc(NC(=O)c2cnccn2)n1 | inconclusive: 79.4 µM [inhibitor, single point] |
| CCOC(=O)C1=C(C)n2c(s/c(=C/c3cccc([N+](=O)[O-])c3)c2=O)=NC1c1ccc(O)c(OC)c1 (stereo not given) | inconclusive: 79.4 µM [inhibitor, partial curve] |
| CCc1[nH]c(C)c(C(C)=O)c1C | inactive |
| Cc1cccc(Nc2cc(C)nc(-n3nc(C)cc3C)n2)c1 | inconclusive: 6.31 µM [inhibitor, partial curve] |
| CCOc1ccc(CN2C(=O)C(=O)c3cccc(C)c32)cc1OC | inconclusive: 50.1 µM [inhibitor, partial curve] |
| COc1cccc(-n2c(CN3CCN(c4ccccc4)CC3)nc3ccc([N+](=O)[O-])cc3c2=O)c1 | inconclusive: 89.1 µM [inhibitor, single point] |
| COc1cc(COc2ccc3c(C)c(CCC(=O)O)c(=O)oc3c2)cc(OC)c1OC | inactive |
| N#C/C(=N\Nc1cc(Cl)cc(Cl)c1)c1nnc2n1CCCCC2 | inconclusive: 39.8 µM [inhibitor, partial curve] |
| Cc1cccc(C(=O)N2c3ncnn3C3(CCCCC3)[C@@H]3CCCC[C@@H]32)c1 | inactive |
| CCSc1nnc(NC(=O)Cc2ccc(OC)cc2)s1 | inconclusive: 100 µM [inhibitor, partial curve] |
| CCOc1ccccc1C(=O)NCC(=O)N(C)Cc1ccccc1C | inactive |

Source: PubChem BioAssay AID504333 (National Center for Advancing Translational Sciences (NCATS), 2011)
